{"source": "the supplement of paper PMC4166925", "note": "± gives the standard deviation of the averaged measurements. Over roughly 33,000 sequences, “E-score (dimensionless, -0.5 to 0.5)” has its median near -0.049; the highest 2% begin near 0.37. The list shows a part of the results.", "data": [{"tested_on": "T1, PmTbr T-box DNA-binding domain (GST fusion)", "T1 sequence": "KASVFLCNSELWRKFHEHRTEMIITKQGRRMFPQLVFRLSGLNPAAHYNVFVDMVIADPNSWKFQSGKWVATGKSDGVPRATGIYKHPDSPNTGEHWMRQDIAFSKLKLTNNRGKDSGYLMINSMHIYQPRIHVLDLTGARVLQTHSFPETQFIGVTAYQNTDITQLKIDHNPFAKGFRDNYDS", "experiment": "PBM E-score of 8-mer (E-score (dimensionless, -0.5 to 0.5)); Tbr is Tbrain of the sea star Patiria miniata (Pm) or the sea urchin Strongylocentrotus purpuratus (Sp); higher = stronger binding preference; most listed sequences are background and not binding sites", "conditions": "the construct has about 5 more residues each side", "method_in_brief": "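Each ungapped 8-mer received an enrichment E-score from the Universal PBM Analysis Suite, averaged over duplicate arrays. The proteins were Tbr T-box DNA-binding domains, covering the whole T-box plus about five flanking residues, fused to GST and expressed in BL21 E. coli at 20 °C before glutathione affinity purification. Universal Agilent oligonucleotide arrays were made double-stranded by primer extension and incubated with 200 nM protein in PBS (pH 7.5). The arrays were then scanned and quantified, and every 8-mer was scored from probe intensities.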", "values": [{"sequence": "CAAAGGCG", "PBM E-score of 8-mer": "0.148 ± 0.013"}, {"sequence": "ATTGTGAA", "PBM E-score of 8-mer": "0.225 ± 0.042"}, {"sequence": "CGGACCGA", "PBM E-score of 8-mer": "-0.17 ± 0.007"}, {"sequence": "CCTTAAAC", "PBM E-score of 8-mer": "-0.07 ± 0.037"}, {"sequence": "ACCTCACA", "PBM E-score of 8-mer": "0.423 ± 0.0099"}, {"sequence": "CACCGCGG", "PBM E-score of 8-mer": "0.0859 ± 0.036"}, {"sequence": "ACCTCGAG", "PBM E-score of 8-mer": "0.163 ± 0.13"}, {"sequence": "CATTATTA", "PBM E-score of 8-mer": "-0.0445 ± 0.0018"}, {"sequence": "CCCTTGAA", "PBM E-score of 8-mer": "-0.392 ± 0.075"}, {"sequence": "ATCCACCG", "PBM E-score of 8-mer": "-0.2934 ± 0.00052"}, {"sequence": "ACCGCTAT", "PBM E-score of 8-mer": "0.0197 ± 0.06"}, {"sequence": "TAAGGAGA", "PBM E-score of 8-mer": "-0.296 ± 0.025"}, {"sequence": "ATTTGTGC", "PBM E-score of 8-mer": "-0.118 ± 0.014"}, {"sequence": "CCACCTGG", "PBM E-score of 8-mer": "0.252 ± 0.0058"}, {"sequence": "CGTGGTAA", "PBM E-score of 8-mer": "0.0635 ± 0.013"}, {"sequence": "ATGTTTCG", "PBM E-score of 8-mer": "0.00583 ± 0.037"}, {"sequence": "GCAATGCA", "PBM E-score of 8-mer": "-0.0122 ± 0.027"}, {"sequence": "AGAGCCTG", "PBM E-score of 8-mer": "-0.0676 ± 0.041"}, {"sequence": "ACTGGTTG", "PBM E-score of 8-mer": "0.102 ± 0.0037"}, {"sequence": "AGTCAGAC", "PBM E-score of 8-mer": "-0.0902 ± 0.076"}, {"sequence": "GAAAATGC", "PBM E-score of 8-mer": "-0.231 ± 0.0041"}, {"sequence": "CAGATACC", "PBM E-score of 8-mer": "-0.254 ± 0.086"}, {"sequence": "AGCCGATC", "PBM E-score of 8-mer": "-0.156 ± 0.069"}, {"sequence": "CCTATCAG", "PBM E-score of 8-mer": "-0.0223 ± 0.0044"}, {"sequence": "ATCAACGG", "PBM E-score of 8-mer": "-0.182 ± 0.042"}, {"sequence": "GCCAGCGC", "PBM E-score of 8-mer": "0.125 ± 0.076"}, {"sequence": "AACCCCTA", "PBM E-score of 8-mer": "-0.151 ± 0.035"}, {"sequence": "TCTAAGAA", "PBM E-score of 8-mer": "-0.239 ± 0.028"}, {"sequence": "ACAATTAC", "PBM E-score of 8-mer": "0.0489 ± 0.039"}, {"sequence": "AGACCGCG", "PBM E-score of 8-mer": "0.0594 ± 0.031"}, {"sequence": "ACTCGTAG", "PBM E-score of 8-mer": "0.00758 ± 0.076"}, {"sequence": "AGAGATAG", "PBM E-score of 8-mer": "-0.137 ± 0.024"}, {"sequence": "GCCGGGCA", "PBM E-score of 8-mer": "-0.204 ± 0.13"}, {"sequence": "ATACTTGA", "PBM E-score of 8-mer": "-0.0949 ± 0.046"}, {"sequence": "AAGGTACG", "PBM E-score of 8-mer": "-0.0456 ± 0.094"}, {"sequence": "ACTTTGGG", "PBM E-score of 8-mer": "-0.151 ± 0.075"}, {"sequence": "CAGACTGC", "PBM E-score of 8-mer": "-0.0353 ± 0.073"}, {"sequence": "GTGAATGA", "PBM E-score of 8-mer": "0.109 ± 0.0043"}, {"sequence": "ATTCCCGA", "PBM E-score of 8-mer": "-0.158 ± 0.071"}, {"sequence": "ACGTTTAC", "PBM E-score of 8-mer": "0.0596 ± 0.021"}, {"sequence": "CATACACA", "PBM E-score of 8-mer": "-0.0494 ± 0.036"}, {"sequence": "AATTAAAA", "PBM E-score of 8-mer": "-0.207 ± 0.11"}, {"sequence": "TGTTTTAA", "PBM E-score of 8-mer": "-0.0151 ± 0.098"}, {"sequence": "CGAATGGA", "PBM E-score of 8-mer": "-0.149 ± 0.025"}, {"sequence": "AATGAATG", "PBM E-score of 8-mer": "0.0321 ± 0.038"}, {"sequence": "CCTCGGTC", "PBM E-score of 8-mer": "0.0608 ± 0.12"}, {"sequence": "CATTAGAG", "PBM E-score of 8-mer": "-0.0379 ± 0.085"}, {"sequence": "CTTAGAAC", "PBM E-score of 8-mer": "-0.112 ± 0.098"}, {"sequence": "AGACTCAA", "PBM E-score of 8-mer": "-0.22 ± 0.045"}, {"sequence": "CTAAAACA", "PBM E-score of 8-mer": "0.0999 ± 0.053"}, {"sequence": "ATGTCGAA", "PBM E-score of 8-mer": "-0.0919 ± 0.073"}, {"sequence": "CATCCGGA", "PBM E-score of 8-mer": "-0.319 ± 0.037"}, {"sequence": "ACCCACCA", "PBM E-score of 8-mer": "-0.195 ± 0.069"}, {"sequence": "TACACTCA", "PBM E-score of 8-mer": "-0.0251 ± 0.036"}, {"sequence": "GGGGCGGA", "PBM E-score of 8-mer": "-0.405 ± 0.031"}, {"sequence": "AGTAGTCC", "PBM E-score of 8-mer": "-0.278 ± 0.058"}, {"sequence": "ACCACGAT", "PBM E-score of 8-mer": "0.0473 ± 0.013"}, {"sequence": "GCTCGTGA", "PBM E-score of 8-mer": "0.237 ± 0.058"}, {"sequence": "CTCTAGTA", "PBM E-score of 8-mer": "-0.239 ± 0.0091"}, {"sequence": "AATTCTTC", "PBM E-score of 8-mer": "-0.162 ± 0.064"}, {"sequence": "CTCTAACA", "PBM E-score of 8-mer": "0.162 ± 0.0073"}, {"sequence": "CATTCTGG", "PBM E-score of 8-mer": "-0.157 ± 0.11"}, {"sequence": "CTGAAGGA", "PBM E-score of 8-mer": "-0.225 ± 0.0061"}, {"sequence": "AAGTGGCG", "PBM E-score of 8-mer": "0.3473 ± 0.0029"}, {"sequence": "CGATATGC", "PBM E-score of 8-mer": "-0.0897 ± 0.0075"}, {"sequence": "CATTACAC", "PBM E-score of 8-mer": "0.247 ± 0.007"}, {"sequence": "GGTTCTAA", "PBM E-score of 8-mer": "-0.136 ± 0.047"}, {"sequence": "CCTCTTTC", "PBM E-score of 8-mer": "-0.072 ± 0.095"}, {"sequence": "CAGTTTGG", "PBM E-score of 8-mer": "0.0673 ± 0.027"}, {"sequence": "GCGTGAGC", "PBM E-score of 8-mer": "0.203 ± 0.06"}, {"sequence": "GTCCACCA", "PBM E-score of 8-mer": "-0.19 ± 0.007"}, {"sequence": "AAATGCTG", "PBM E-score of 8-mer": "-0.134 ± 0.038"}, {"sequence": "AGCGATGG", "PBM E-score of 8-mer": "0.102 ± 0.0073"}, {"sequence": "CTGGCCGC", "PBM E-score of 8-mer": "-0.252 ± 0.018"}, {"sequence": "CTCAGTAA", "PBM E-score of 8-mer": "-0.147 ± 0.068"}, {"sequence": "GAATAAGA", "PBM E-score of 8-mer": "-0.0898 ± 0.037"}, {"sequence": "CTTGGTGA", "PBM E-score of 8-mer": "0.12 ± 0.032"}, {"sequence": "CCTGAGTA", "PBM E-score of 8-mer": "-0.144 ± 0.013"}, {"sequence": "AATTAAGC", "PBM E-score of 8-mer": "-0.186 ± 0.0037"}, {"sequence": "AACTATGC", "PBM E-score of 8-mer": "0.0396 ± 0.064"}, {"sequence": "CTTTAACC", "PBM E-score of 8-mer": "-0.195 ± 0.048"}, {"sequence": "ACGTTGAG", "PBM E-score of 8-mer": "0.069 ± 0.0054"}, {"sequence": "AAGCCAAA", "PBM E-score of 8-mer": "-0.189 ± 0.018"}, {"sequence": "CCGGAAGG", "PBM E-score of 8-mer": "-0.171 ± 0.089"}, {"sequence": "TAGAATAA", "PBM E-score of 8-mer": "-0.216 ± 0.027"}, {"sequence": "CATAGCCC", "PBM E-score of 8-mer": "-0.0326 ± 0.025"}]}]}
